# This is one part of the list.
# Tests used:
# Assay in all cases: glycan array binding signal (z-score within array); higher = stronger binding
# Conditions in all cases: glycan notation: IUPAC condensed, linker removed
# [1] = target: Gal(b1-4)GlcNAc(b1-2)Man(a1-6)[GlcNAc(b1-2)Man(a1-3)]Man(b1-4)GlcNAc(b1-4)GlcNAc
# Procedure, shortened: (§1)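 Glycan array data were curated from 3228 arrays in the Consortium for Functional Glycomics database and kept only where the protein sequence was available. Glycan names were converted to IUPAC-condensed notation, and columns mapping to the same glycan were averaged. The binding signal is a within-array Z-score, averaged across arrays of the same protein sequence at different concentrations or buffers and across linkers. Negative Z-scores can be read as non-binding.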
# [2] = target: Gal(b1-4)GlcNAc(b1-2)Man(a1-6)[Man(a1-3)]Man(b1-4)GlcNAc(b1-4)GlcNAc
# Procedure, shortened: as §1
# [3] = target: Gal(b1-4)GlcNAc(b1-2)[Gal(b1-4)GlcNAc(b1-4)]Man(a1-3)[Gal(b1-4)GlcNAc(b1-2)Man(a1-6)]Man(b1-4)GlcNAc(b1-4)GlcNAc
# Procedure, shortened: as §1
# [4] = target: Gal(b1-4)GlcNAc(b1-2)[Gal(b1-4)GlcNAc(b1-4)]Man(a1-3)[Gal(b1-4)GlcNAc(b1-2)[Gal(b1-4)GlcNAc(b1-6)]Man(a1-6)]Man(b1-4)GlcNAc(b1-4)GlcNAc
# Procedure, shortened: as §1
# [5] = target: Gal(b1-4)GlcNAc(b1-2)[Gal(b1-4)GlcNAc(b1-4)]Man(a1-3)[GlcNAc(b1-4)][Gal(b1-4)GlcNAc(b1-2)Man(a1-6)]Man(b1-4)GlcNAc(b1-4)GlcNAc
# Procedure, shortened: as §1
# [6] = target: Gal(b1-4)GlcNAc(b1-2)[Gal(b1-4)GlcNAc(b1-4)]Man(a1-3)[GlcNAc(b1-4)][Gal(b1-4)GlcNAc(b1-2)[Gal(b1-4)GlcNAc(b1-6)]Man(a1-6)]Man(b1-4)GlcNAc(b1-4)GlcNAc
# Procedure, shortened: as §1
# [7] = target: Gal(b1-4)GlcNAc(b1-2)[Gal(b1-4)GlcNAc(b1-6)]Man(a1-6)[Gal(b1-4)GlcNAc(b1-2)Man(a1-3)]Man(b1-4)GlcNAc(b1-4)GlcNAc
# Procedure, shortened: as §1
# [8] = target: Gal(b1-4)GlcNAc(b1-2)[Gal(b1-4)GlcNAc(b1-6)]Man(a1-6)[Gal(b1-4)GlcNAc(b1-2)Man(a1-3)]Man(b1-4)GlcNAc(b1-4)[Fuc(a1-6)]GlcNAc
# Procedure, shortened: as §1
# [9] = target: Gal(b1-4)GlcNAc(b1-2)[Gal(b1-4)GlcNAc(b1-6)]Man(a1-6)[GlcNAc(b1-4)][Gal(b1-4)GlcNAc(b1-2)Man(a1-3)]Man(b1-4)GlcNAc(b1-4)GlcNAc
# Procedure, shortened: as §1
# [10] = target: Gal(b1-4)GlcNAc(b1-2)[Gal(b1-4)GlcNAc(b1-6)]Man(a1-6)[GlcNAc(b1-4)][Gal(b1-4)GlcNAc(b1-2)[Gal(b1-4)GlcNAc(b1-4)]Man(a1-3)]Man(b1-4)GlcNAc(b1-4)[Fuc(a1-6)]GlcNAc
# Procedure, shortened: as §1
# [11] = target: Gal(b1-4)GlcNAc(b1-3)Gal(b1-3)GalNAc
# Procedure, shortened: as §1
# [12] = target: Gal(b1-4)GlcNAc(b1-3)Gal(b1-3)GlcNAc
# Procedure, shortened: as §1
# [13] = target: Gal(b1-4)GlcNAc(b1-3)Gal(b1-4)Glc
# Procedure, shortened: as §1
# [14] = target: Gal(b1-4)GlcNAc(b1-3)Gal(b1-4)GlcNAc
# Procedure, shortened: as §1
# [15] = target: Gal(b1-4)GlcNAc(b1-3)Gal(b1-4)GlcNAc(b1-2)Man(a1-3)[Gal(b1-4)GlcNAc(b1-3)Gal(b1-4)GlcNAc(b1-2)Man(a1-6)]Man(b1-4)GlcNAc(b1-4)GlcNAc
# Procedure, shortened: as §1
# [16] = target: Gal(b1-4)GlcNAc(b1-3)Gal(b1-4)GlcNAc(b1-2)Man(a1-3)[Gal(b1-4)GlcNAc(b1-3)Gal(b1-4)GlcNAc(b1-2)Man(a1-6)]Man(b1-4)GlcNAc(b1-4)[Fuc(a1-6)]GlcNAc
# Procedure, shortened: as §1
# [17] = target: Gal(b1-4)GlcNAc(b1-3)Gal(b1-4)GlcNAc(b1-2)[Gal(b1-4)GlcNAc(b1-3)Gal(b1-4)GlcNAc(b1-6)]Man(a1-6)[Gal(b1-4)GlcNAc(b1-3)Gal(b1-4)GlcNAc(b1-2)Man(a1-3)]Man(b1-4)GlcNAc(b1-4)GlcNAc
# Procedure, shortened: as §1
# [18] = target: Gal(b1-4)GlcNAc(b1-3)Gal(b1-4)GlcNAc(b1-2)[Gal(b1-4)GlcNAc(b1-3)Gal(b1-4)GlcNAc(b1-6)]Man(a1-6)[Gal(b1-4)GlcNAc(b1-3)Gal(b1-4)GlcNAc(b1-2)Man(a1-3)]Man(b1-4)GlcNAc(b1-4)[Fuc(a1-6)]GlcNAc
# Procedure, shortened: as §1
binder,measurement,setting,value
Epa1 (Candida glabrata) (protein) MGSSHHHHHHSSGLVPRGSHMTSSNDISLASKDPTTFPLGCSPDITTPKKGLSMELYSYDFRKKGSYPCWDAAYLDPNYPRTGYKSHRLLAKVDGVTGNINFYYHATKGCTPQLGHLPASYNYPKPLTMTNFTMLLYGYFRPKVTGFHTFTISADDLLFVNFGAGNAFDCCRRDSSADHFGNYQAYAIWGSKTAKDELTVHLDAGVYYPIRLFYNNREYDGALSFTFKTESNENTVSDFSEYFFSLDDTEEGCPGLISYD,glycan array binding signal (z-score),[1],-0.193
same,glycan array binding signal (z-score),[2],-0.169
same,glycan array binding signal (z-score),[3],0.625
same,glycan array binding signal (z-score),[4],1.18
same,glycan array binding signal (z-score),[5],-0.019
same,glycan array binding signal (z-score),[6],1.92
same,glycan array binding signal (z-score),[7],0.362
same,glycan array binding signal (z-score),[8],0.835
same,glycan array binding signal (z-score),[9],0.072
same,glycan array binding signal (z-score),[10],1.67
same,glycan array binding signal (z-score),[11],-0.062
same,glycan array binding signal (z-score),[12],-0.155
same,glycan array binding signal (z-score),[13],0.551
same,glycan array binding signal (z-score),[14],0.031
same,glycan array binding signal (z-score),[15],0.327
same,glycan array binding signal (z-score),[16],1.04
same,glycan array binding signal (z-score),[17],1.39
same,glycan array binding signal (z-score),[18],3.08
